Hit rate of the full screen: of about 48,000 compounds, about 450 (0.94%) were called active. Not shown: some 19% with an inconclusive outcome. Calls come from the whole dose curve; as a rule, active = well fitted inhibition curve with a large enough effect; inconclusive = small, poorly fitted or top-dose-only effect; inactive = no such curve, though single readings can be large or run the other way. The list shows a part of the results.

This test is described as follows: Primary qHTS for Identification of Small Molecule Inhibitors of Huntingtin Promoter Activity. Note: nearly all actives have a fitted effect of over 50% in size. The following applies: HEK293 HTT promoter firefly luciferase reporter (activity 0% = vehicle and -100% = no light), 24 h; series mostly up to 57.5 µM; activity change, negative = inhibition: at the top concentration. An outline of the steps:
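Quantitative HTS used concentration series of up to 57.5 uM final on HEK293 luciferase reporter cells, 24 h at 37 degrees C. Readout was Dual-Glo firefly luminescence.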
`COC(=O)CSc1ccc2nnc(CCNS(=O)(=O)c3ccccc3)n2n1`: the “activity change, negative = inhibition” value was inactive: -4.09%.

`Cc1cccc(NC(=O)c2c(N)sc3c2CCC(C)C3)c1` (stereo not drawn): the “activity change, negative = inhibition” value was inactive: 40.8%.

Take `Cc1ccccc1NC(=O)c1c(NC(=O)c2cccs2)sc2c1CCC(C)C2` (stereo not drawn): the “activity change, negative = inhibition” value is inactive: 3.15%.

In the case of `O=C(Nc1ccc2nn(-c3ccc(Cl)cc3)nc2c1)c1cc2ccccc2o1`, the “activity change, negative = inhibition” value is inactive: -20.2%.

Regarding `COc1ccc(C(=O)NCC(c2ccco2)S(=O)(=O)c2cccs2)cc1` (stereo not drawn), the “activity change, negative = inhibition” value is inactive: -7.59%.

Regarding `N#Cc1nc(/C=C/c2ccc(F)cc2)oc1NC1CCCCC1`, the “activity change, negative = inhibition” value was inactive: -2.64%.

With `Cc1ccc(OCc2cc(=O)n3ccsc3n2)c(NC(=O)c2ccco2)c1`, the “activity change, negative = inhibition” value was inactive: -3.12%.

Turning to `COc1ccc(N(C)C(=O)C2CCN(S(=O)(=O)c3cc(Br)cc4c3N(C(C)=O)CC4)CC2)cc1`, the “activity change, negative = inhibition” value was inactive: 0%.

With `COc1ccc(-c2nc3cc(NC(=O)c4cc5ccccc5o4)ccc3o2)cc1`, the “activity change, negative = inhibition” value is inactive: 8.97%.

With `Cc1ccn2c(Nc3ccccc3C)c(-c3ccccc3)nc2c1`, the “activity change, negative = inhibition” value was inactive: -16.4%.

In the case of `Cc1cccc(OCC(=O)Nc2ccccc2OCc2cc(=O)n3cc(C)ccc3n2)c1`, the “activity change, negative = inhibition” value was inactive: -4.26%.

`CCn1ccc2cc(S(=O)(=O)N3CCC(C(=O)NCc4ccc(F)cc4)CC3)ccc21`: the “activity change, negative = inhibition” value was inactive: -20.4%.

`O=C(Cn1c(=O)n2nc(-c3cccc(F)c3)nc2c2ccccc21)NCc1ccc(Cl)cc1`: the “activity change, negative = inhibition” value is inactive: 0.65%.

`COc1cccc(NC(=O)Cn2c(=O)n(Cc3ccco3)c(=O)c3cc(OC)c(OC)cc32)c1`: the “activity change, negative = inhibition” value is inactive: -13.6%.

Regarding `COc1ccccc1CNC(=O)CS(=O)(=O)Cc1nc(-c2ccccc2C)oc1C`, the “activity change, negative = inhibition” value was inactive: -9.88%.

For `CN(C)c1ccc(C(=O)NCc2ccc3c(c2)CCN3C(=O)c2ccccc2)cc1`, the “activity change, negative = inhibition” value was inactive: -26.8%.

In the case of `CC(C)CCNC(=O)CSc1nc2ccccc2nc1Cc1ccc(Cl)cc1`, the “activity change, negative = inhibition” value was inactive: -2.04%.

In the case of `CC1CCN(c2nc(-c3ccc(Br)cc3)nc3ccccc23)CC1`, the “activity change, negative = inhibition” value was inactive: -7.97%.

Take `CN(C)c1ccc(CNC(=O)c2sc3ncccc3c2-n2cccc2)cc1`: the “activity change, negative = inhibition” value is inactive: -32.6%.

Regarding `Cc1cc(C)cc(NC(=O)CCN2C(=O)c3ccccc3Sc3ncccc32)c1`, the “activity change, negative = inhibition” value was inactive: -17.1%.

Turning to `CC1CCCCN1CCCNC(=O)Cn1ncc2c3ccccc3n(Cc3ccccc3F)c2c1=O` (stereo not drawn), the “activity change, negative = inhibition” value is inactive: 2.44%.

In the case of `Cc1ccc(-c2cc(C(F)(F)F)c(C#N)c(SCC(=O)Nc3ccccc3F)n2)cc1`, the “activity change, negative = inhibition” value was inactive: -23.3%.

With `COc1cccc(CNC(=O)CN2C(=O)CSc3ccc(S(=O)(=O)N4CCCC4)cc32)c1`, the “activity change, negative = inhibition” value is inactive: 2.22%.

Take `Cc1cc(C)c(NC(=O)CN2C(=O)CCSc3ccc(S(=O)(=O)N4CCCC4)cc32)c(C)c1`: the “activity change, negative = inhibition” value was inactive: -25.2%.

On to `COCCn1c(C)cc(O)c(C(c2ccc(Cl)cc2)N2CCCCC2)c1=O` (stereo not drawn), for which the “activity change, negative = inhibition” value is inactive: -11.9%.

Turning to `COc1ccc(C2C(=O)N(C3CCCCC3)CC(=O)N2C2CCCCC2)cc1` (stereo not drawn), the “activity change, negative = inhibition” value is inactive: -8.56%.

Regarding `O=C(c1ccccc1)N1CCCCC1CCN1CCCCC1` (stereo not drawn), the “activity change, negative = inhibition” value was inactive: -7.27%.

Regarding `CCN(Cc1ccccc1)C(=O)C(CC(C)C)NS(=O)(=O)c1ccc2c(c1)CCN2C(C)=O` (stereo not drawn), the “activity change, negative = inhibition” value is inactive: -16.2%.

`Cc1ccc(-n2c(=O)c3ccccc3n(CC(=O)Nc3cccc(C(F)(F)F)c3)c2=O)cc1`: the “activity change, negative = inhibition” value was inactive: -26.9%.

As to `N#C/C(=C\c1ccc(Cl)cc1)c1nc(-c2cc3c(ccc4ccccc43)oc2=O)cs1`, the “activity change, negative = inhibition” value is inactive: -0.596%.

Consider `O=C(Cn1c(=O)n(-c2ccccc2)c(=O)c2sc3ccccc3c21)NC1CCCC1`, for which the “activity change, negative = inhibition” value was inactive: -9.06%.

Turning to `O=C(CN1C(=O)CC(c2ccc(F)cc2)=Nc2ccccc21)NCc1ccccc1Cl`, the “activity change, negative = inhibition” value is inactive: -23.7%.

As to `O=C(CSc1nnc2[nH]c(=O)cc(-c3ccccc3)n12)Nc1cc(C(F)(F)F)ccc1Cl`, the “activity change, negative = inhibition” value was inactive: 36.4%.

`CCOc1ccc(NC(=O)CN(C)S(=O)(=O)c2cnc[nH]2)cc1`: the “activity change, negative = inhibition” value was inactive: 3.13%.

On to `Nc1c(C(=O)Nc2cccc(C(F)(F)F)c2)c2ccccn2c1C(=O)c1ccccc1`, for which the “activity change, negative = inhibition” value is inactive: -1.64%.

With `Cc1ccc2oc(-c3cc(NC(=O)/C=C/c4ccco4)ccc3Cl)nc2c1`, the “activity change, negative = inhibition” value was inactive: 0%.

With `CC(=O)Nc1nonc1-c1nc2ccccc2n1Cc1ccccc1Br`, the “activity change, negative = inhibition” value is inactive: 2.6%.

As to `COc1cc2c(cc1OC)C(COc1ccc3c(C)cc(=O)oc3c1)N(C(=O)CC(C)C)CC2` (stereo not drawn), the “activity change, negative = inhibition” value was inactive: -8.94%.

As for `CCC1Nc2cc(Cl)c(S(N)(=O)=O)cc2S(=O)(=O)N1` (stereo not drawn), the “activity change, negative = inhibition” value was inactive: -6.49%.

For the compound `Brc1ccc2nc(SCCOc3ccccc3)[nH]c2c1`, the “activity change, negative = inhibition” value was inactive: 8.85%.

Regarding `COc1ccc(NC(=O)CCc2c(C)nc3c(-c4ccc(F)cc4)c(C)nn3c2C)c(OC)c1`, the “activity change, negative = inhibition” value is inactive: -11.8%.

`Cc1ccccc1CN1CCCN(CC(=O)Nc2ccc3c(c2)OCCO3)S1(=O)=O`: the “activity change, negative = inhibition” value is inactive: -5.72%.

As for `COC(=O)c1cc(NC(=O)c2ccc(-c3ccc(Cl)cc3Cl)o2)cc(C(=O)OC)c1`, the “activity change, negative = inhibition” value was inactive: -7.64%.

Consider `CCOC(=O)c1noc2nc(C)n(Cc3ccc([N+](=O)[O-])cc3)c(=O)c12`, for which the “activity change, negative = inhibition” value was inactive: -17.5%.

In the case of `Cc1cccc(Cn2nnc3c(=O)[nH]c(C4CCN(C(=O)c5ccc(F)cc5)CC4)nc32)c1`, the “activity change, negative = inhibition” value is inactive: -8.87%.

`CN1CCN(C(CNC(=O)c2ccccc2)c2ccc3c(c2)OCO3)CC1` (stereo not drawn): the “activity change, negative = inhibition” value is inactive: -11.3%.

In the case of `CCn1c(=O)cc(SCC(=O)N2CCN(c3ccccc3F)CC2)c2ccccc21`, the “activity change, negative = inhibition” value was inactive: -3.38%.

Consider `O=C(NCc1cccc(Cl)c1)C1CCCN(c2ncnc3onc(-c4ccc(F)cc4)c23)C1` (stereo not drawn), for which the “activity change, negative = inhibition” value was inactive: -22.5%.

(Values after PubChem BioAssay AID1508623 (National Center for Advancing Translational Sciences (NCATS), 2021).)
